Measurements: the supplement of paper PMC4604168 (melanoma cell lines)
Some of the results follow. Single values are uncertain, as repeats are few or missing.

test system: WM1745; assay: cell count relative to DMSO control; melanoma cells; higher = more viable cells; settings: library dose: low library concentration; 72 h
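Note: cell number obtained by counting DAPI-stained nuclei in high-throughput microscope images with image analysis software, screen run in 1,536-well plates.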

Structure (SMILES)	cell count [%]
CC(=O)c1c(C)c2cnc(Nc3ccc(N4CCNCC4)cn3)nc2n(C2CCCC2)c1=O [palbociclib] + O=C1NC(=O)/C(=C/c2ccc(-c3ccc(F)cc3O)o2)S1 [AS252424] (first compound 0.04 µM, partner dose 1 µM)	72.8
CC(=O)c1c(C)c2cnc(Nc3ccc(N4CCNCC4)cn3)nc2n(C2CCCC2)c1=O [palbociclib] + O=C(Nc1cccc(Cl)c1)Nc1ncc(CCNc2ncnc3ccsc23)s1 [SNS314] (first compound 0.04 µM, partner dose 0.0008 µM)	64.8
Nc1ncn([C@H]2C[C@H](O)[C@@H](CO)O2)c(=O)n1 [decitabine] + C[C@]1(c2nc3c(C(N)=O)cccc3[nH]2)CCCN1 [Veliparib] (first compound 0.1 µM, partner dose 1.4 µM)	116
CC(=O)c1c(C)c2cnc(Nc3ccc(N4CCNCC4)cn3)nc2n(C2CCCC2)c1=O [palbociclib] + Clc1ccc(Nc2nnc(Cc3ccncc3)c3ccccc23)cc1 [vatalanib] (first compound 0.04 µM, partner dose 2 µM)	69.7
Nc1nc(F)nc2c1ncn2[C@@H]1O[C@H](CO)[C@@H](O)[C@@H]1O [fludarabine] + COc1cc2ncnc(Nc3ccc(Oc4ccccc4)cc3)c2cc1OC [SrcI1] (first compound 0.2 µM, partner dose 2 µM)	89.3

test system: WM3526; assay: as above; settings: library dose: low library concentration; 72 h

Structure (SMILES)	cell count [%]
CC(=O)O[C@@]12CO[C@@H]1C[C@H](O)[C@@]1(C)C(=O)[C@H](O)C3=C(C)[C@@H](OC(=O)[C@H](O)[C@@H](NC(=O)OC(C)(C)C)c4ccccc4)C[C@@](O)([C@@H](OC(=O)c4ccccc4)[C@H]21)C3(C)C [Docetaxel] + Nc1cccc2c1CN(C1CCC(=O)NC1=O)C2=O [lenalidomide] (first compound 0.0001 µM, partner dose 1 µM)	40.5
CC(=O)O[C@@]12CO[C@@H]1C[C@H](O)[C@@]1(C)C(=O)[C@H](O)C3=C(C)[C@@H](OC(=O)[C@H](O)[C@@H](NC(=O)OC(C)(C)C)c4ccccc4)C[C@@](O)([C@@H](OC(=O)c4ccccc4)[C@H]21)C3(C)C [Docetaxel] + O=C(O)c1ccc(-c2c[nH]c3ncc(-c4ccccc4)cc23)cc1C1CCCC1 [GSK650394] (first compound 0.0001 µM, partner dose 0.16 µM)	55.2
Nc1nc(F)nc2c1ncn2[C@@H]1O[C@H](CO)[C@@H](O)[C@@H]1O [fludarabine] + CC1(C)NC(=O)N(c2ccc([N+](=O)[O-])c(C(F)(F)F)c2)C1=O [nilutamide] (first compound 0.2 µM, partner dose 1 µM)	25.6
Nc1nc(F)nc2c1ncn2[C@@H]1O[C@H](CO)[C@@H](O)[C@@H]1O [fludarabine] + c1cc(-c2cnn3cc(-c4ccc(OCCN5CCCCC5)cc4)cnc23)ccn1 [Dorsomorphin] (first compound 0.2 µM, partner dose 0.4 µM)	20.5
Nc1nc(F)nc2c1ncn2[C@@H]1O[C@H](CO)[C@@H](O)[C@@H]1O [fludarabine] + CCN(CC)CCCCNc1ncc2cc(-c3cc(OC)cc(OC)c3)c(NC(=O)NC(C)(C)C)nc2n1 [PD173074] (first compound 0.2 µM, partner dose 0.1 µM)	29.5
Nc1nc(F)nc2c1ncn2[C@@H]1O[C@H](CO)[C@@H](O)[C@@H]1O [fludarabine] + C=CCNC1=C2C[C@@H](C)C[C@H](OC)[C@H](O)[C@@H](C)/C=C(\C)[C@H](OC(N)=O)[C@@H](OC)/C=C\C=C(/C)C(=O)NC(=CC1=O)C2=O [Tanespimycin] (first compound 0.2 µM, partner dose 0.002 µM)	45.5
Nc1nc(F)nc2c1ncn2[C@@H]1O[C@H](CO)[C@@H](O)[C@@H]1O [fludarabine] + C=CCn1c(=O)c2cnc(Nc3ccc(N4CCN(C)CC4)cc3)nc2n1-c1cccc(C(C)(C)O)n1 [MK1775] (first compound 0.2 µM, partner dose 0.02 µM)	23.5
CC(=O)c1c(C)c2cnc(Nc3ccc(N4CCNCC4)cn3)nc2n(C2CCCC2)c1=O [palbociclib] + CN(C)S(=O)(=O)c1ccc2c(c1)/C(=C/c1cc3c([nH]1)CCCC3)C(=O)N2 [SU6656] (first compound 0.04 µM, partner dose 0.4 µM)	63.9
CC(=O)c1c(C)c2cnc(Nc3ccc(N4CCNCC4)cn3)nc2n(C2CCCC2)c1=O [palbociclib] + Cn1cncc1[C@@](N)(c1ccc(Cl)cc1)c1ccc2c(c1)c(-c1cccc(Cl)c1)cc(=O)n2C [tipifarnib] (first compound 0.04 µM, partner dose 0.01 µM)	62.9
Nc1ccn([C@@H]2O[C@H](CO)[C@@H](O)C2(F)F)c(=O)n1 [gemcitabine] + Nc1cccc2c1CN(C1CCC(=O)NC1=O)C2=O [lenalidomide] (first compound 0.0004 µM, partner dose 1 µM)	84.2
Nc1nc(F)nc2c1ncn2[C@@H]1O[C@H](CO)[C@@H](O)[C@@H]1O [fludarabine] + Clc1ccc(Nc2nnc(Cc3ccncc3)c3ccccc23)cc1 [vatalanib] (first compound 0.2 µM, partner dose 2 µM)	19.7
Nc1nc(F)nc2c1ncn2[C@@H]1O[C@H](CO)[C@@H](O)[C@@H]1O [fludarabine] + C#Cc1cccc(Nc2ncnc3cc(OCCOC)c(OCCOC)cc23)c1 [erlotinib] (first compound 0.2 µM, partner dose 0.8 µM)	27.8
Nc1nc(F)nc2c1ncn2[C@@H]1O[C@H](CO)[C@@H](O)[C@@H]1O [fludarabine] + O=C(O)C(=O)Nc1sc2c(c1C(=O)O)CCNC2 [TCS401] (first compound 0.2 µM, partner dose 1.66667 µM)	37.7
CC(=O)O[C@@]12CO[C@@H]1C[C@H](O)[C@@]1(C)C(=O)[C@H](O)C3=C(C)[C@@H](OC(=O)[C@H](O)[C@@H](NC(=O)OC(C)(C)C)c4ccccc4)C[C@@](O)([C@@H](OC(=O)c4ccccc4)[C@H]21)C3(C)C [Docetaxel] + O=c1cc(-c2cccc3c2Sc2ccccc2S3)oc(N2CCOCC2)c1 [KU55933] (first compound 0.0001 µM, partner dose 1 µM)	33.7
Nc1ccn([C@@H]2O[C@H](CO)[C@@H](O)C2(F)F)c(=O)n1 [gemcitabine] + Cc1cc([N+](=O)[O-])ccc1NS(=O)(=O)c1cc(Cl)ccc1Cl [FH535] (first compound 0.0004 µM, partner dose 1 µM)	97.8
CC(=O)c1c(C)c2cnc(Nc3ccc(N4CCNCC4)cn3)nc2n(C2CCCC2)c1=O [palbociclib] + O=C(O)c1ccc(-c2c[nH]c3ncc(-c4ccccc4)cc23)cc1C1CCCC1 [GSK650394] (first compound 0.04 µM, partner dose 0.16 µM)	74.8
CO[C@H]1C[C@@H]2CC[C@@H](C)[C@@](O)(O2)C(=O)C(=O)N2CCCC[C@H]2C(=O)O[C@H]([C@H](C)C[C@@H]2CC[C@@H](OCCO)[C@H](OC)C2)CC(=O)[C@H](C)/C=C(\C)[C@@H](O)[C@@H](OC)C(=O)[C@H](C)C[C@H](C)/C=C/C=C/C=C/1C [everolimus] + CCCCCCCCCCCC1=C(O)C(=O)C=C(O)C1=O [Embelin] (first compound 0.02 µM, partner dose 1.2 µM)	64.6
Nc1ncn([C@H]2C[C@H](O)[C@@H](CO)O2)c(=O)n1 [decitabine] + CC(C)(C)c1cnc(CSc2cnc(NC(=O)C3CCNCC3)s2)o1 [SNS-032] (first compound 0.1 µM, partner dose 0.01 µM)	94.7
CO[C@H]1C[C@@H]2CC[C@@H](C)[C@@](O)(O2)C(=O)C(=O)N2CCCC[C@H]2C(=O)O[C@H]([C@H](C)C[C@@H]2CC[C@@H](OCCO)[C@H](OC)C2)CC(=O)[C@H](C)/C=C(\C)[C@@H](O)[C@@H](OC)C(=O)[C@H](C)C[C@H](C)/C=C/C=C/C=C/1C [everolimus] + Cn1nnc2c(C(N)=O)ncn2c1=O [temozolomide] (first compound 0.02 µM, partner dose 2 µM)	59.8
CO[C@H]1C[C@@H]2CC[C@@H](C)[C@@](O)(O2)C(=O)C(=O)N2CCCC[C@H]2C(=O)O[C@H]([C@H](C)C[C@@H]2CC[C@@H](OCCO)[C@H](OC)C2)CC(=O)[C@H](C)/C=C(\C)[C@@H](O)[C@@H](OC)C(=O)[C@H](C)C[C@H](C)/C=C/C=C/C=C/1C [everolimus] + Cn1cncc1[C@@](N)(c1ccc(Cl)cc1)c1ccc2c(c1)c(-c1cccc(Cl)c1)cc(=O)n2C [tipifarnib] (first compound 0.02 µM, partner dose 0.01 µM)	75.2
Nc1nc(F)nc2c1ncn2[C@@H]1O[C@H](CO)[C@@H](O)[C@@H]1O [fludarabine] + COCC[n+]1c2c(n(Cc3cnccn3)c1C)C(=O)c1ccccc1C2=O [YM155] (first compound 0.2 µM, partner dose 0.0004 µM)	17.9
CO[C@H]1C[C@@H]2CC[C@@H](C)[C@@](O)(O2)C(=O)C(=O)N2CCCC[C@H]2C(=O)O[C@H]([C@H](C)C[C@@H]2CC[C@@H](OCCO)[C@H](OC)C2)CC(=O)[C@H](C)/C=C(\C)[C@@H](O)[C@@H](OC)C(=O)[C@H](C)C[C@H](C)/C=C/C=C/C=C/1C [everolimus] + c1cc(-c2cnn3cc(-c4ccc(OCCN5CCCCC5)cc4)cnc23)ccn1 [Dorsomorphin] (first compound 0.02 µM, partner dose 0.4 µM)	66.5
